In the supplement of paper PMC8728848:
Only a selection was taken, and the strongest signals are over-represented in it overall.

system: Gal3S(b1-4)Glc6S; assay: glycan array binding signal (z-score within array); higher = stronger binding; conditions: glycan notation: IUPAC condensed, linker removed
Outline: (§1)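 Arrays were curated from the Consortium for Functional Glycomics database, 3228 in total, and kept only where the protein sequence was available. Binding is expressed as a within-array Z-score. This score was averaged across arrays of the same protein sequence at different concentrations or buffers and across linkers, and negative values can be read as non-binding.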

Point of comparison: “Gal 3 (Homo sapiens) (chain not printed)”, “glycan array binding signal (z-score)” value 0.1. Against it:
- Galectin-8 C-terminal CRD (Homo sapiens) (chain not printed) — higher, 5.8
- M-Ficolin Y271F (Homo sapiens) (chain not printed) — higher, 0.33
- Gal 8 long (Homo sapiens) (chain not printed) — higher, 3.92

system: Gal3S(b1-4)Glc; assay: as above; conditions: glycan notation: IUPAC condensed, linker removed
Outline: as §1

Point of comparison: “Galectin-8 C-terminal CRD (Homo sapiens) (chain not printed)”, “glycan array binding signal (z-score)” value 0.714. Against it:
- Serum Amyloid P component (Homo sapiens) (chain not printed) — lower, 0.118
- L-Ficolin (Homo sapiens) (chain not printed) — lower, -0.183

system: Gal3S4S(b1-4)GlcNAc; assay: as above; conditions: glycan notation: IUPAC condensed, linker removed
Outline: as §1

Point of comparison: MBP (Homo sapiens) (chain not printed), “glycan array binding signal (z-score)” value -0.13. Against it:
- FGF2 (chain not printed) — higher, 6.35
- Collectin K1 (Homo sapiens) (chain not printed) — lower, -0.198

system: Gal3S6S(b1-4)GlcNAc6S; assay: as above; conditions: glycan notation: IUPAC condensed, linker removed
Outline: as §1

Point of comparison: “L-Ficolin (Homo sapiens) (chain not printed)”, “glycan array binding signal (z-score)” value 3.53. Against it:
- CLEC-2 (Homo sapiens) (chain not printed) — higher, 5.83
- Serum Amyloid P component (Homo sapiens) (chain not printed) — lower, 1.45
- FGF2 (chain not printed) — higher, 3.54

system: Gal3S6S(b1-4)GlcNAc; assay: as above; conditions: glycan notation: IUPAC condensed, linker removed
Outline: as §1

Point of comparison: “Gal 8-short (Homo sapiens) (chain not printed)”, “glycan array binding signal (z-score)” value -0.646. Against it:
- M-Ficolin (Homo sapiens) (chain not printed) — higher, -0.143
- NCAM1 (Homo sapiens) (chain not printed) — higher, -0.194
